# From the supplement of paper PMC8728848
# The other results are listed elsewhere or left out.
# What was measured:
# Experiment in all cases: glycan array binding signal (z-score within array); higher = stronger binding
# Settings in all cases: glycan notation: IUPAC condensed, linker removed
# [1] = biological target: Neu5Ac(a2-8)Neu5Ac
# How it was run: (§1)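 Arrays were curated from the Consortium for Functional Glycomics database, 3228 in total, and kept only where the protein sequence was available. Binding is expressed as a within-array Z-score. This score was averaged across arrays of the same protein sequence at different concentrations or buffers and across linkers, and negative values can be read as non-binding.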
# [2] = biological target: Neu5Ac(a2-8)Neu5Ac(a2-3)Gal(b1-3)GalNAc(b1-4)[Neu5Ac(a2-3)]Gal(b1-4)Glc
# How it was run: as §1
# [3] = biological target: Neu5Ac(a2-8)Neu5Ac(a2-3)Gal(b1-3)GalNAc(b1-4)[Neu5Ac(a2-8)Neu5Ac(a2-3)]Gal(b1-4)Glc
# How it was run: as §1
# [4] = biological target: Neu5Ac(a2-8)Neu5Ac(a2-3)Gal(b1-4)Glc
# How it was run: as §1
# [5] = biological target: Neu5Ac(a2-8)Neu5Ac(a2-3)Gal(b1-4)GlcNAc
# How it was run: as §1
# [6] = biological target: Neu5Ac(a2-8)Neu5Ac(a2-3)[Gal(b1-3)GalNAc(b1-4)]Gal(b1-4)Glc
# How it was run: as §1
# [7] = biological target: Neu5Ac(a2-8)Neu5Ac(a2-3)[GalNAc(b1-4)]Gal(b1-4)Glc
# How it was run: as §1
# [8] = biological target: Neu5Ac(a2-8)Neu5Ac(a2-8)Neu5Ac
# How it was run: as §1
# [9] = biological target: Neu5Ac(a2-8)Neu5Ac(a2-8)Neu5Ac(a2-3)Gal(b1-4)Glc
# How it was run: as §1
# [10] = biological target: Neu5Ac(a2-8)Neu5Ac(a2-8)Neu5Ac(a2-3)[Gal(b1-3)GalNAc(b1-4)]Gal(b1-4)Glc
# How it was run: as §1
# [11] = biological target: Neu5Ac(a2-8)Neu5Ac(a2-8)Neu5Ac(a2-3)[GalNAc(b1-4)]Gal(b1-4)Glc
# How it was run: as §1
# [12] = biological target: Neu5Ac(a2-8)Neu5Ac(a2-8)Neu5Ac(a2-8)Neu5Ac(a2-3)[GalNAc(b1-4)]Gal(b1-4)Glc
# How it was run: as §1
# [13] = biological target: Neu5Ac(a2-8)Neu5Gc(a2-3)Gal(b1-4)GlcNAc
# How it was run: as §1
# [14] = biological target: Neu5Ac(b2-6)Gal(b1-4)GlcNAc
# How it was run: as §1
# [15] = biological target: Neu5Ac(b2-6)GalNAc
# How it was run: as §1
# [16] = biological target: Neu5Ac9Ac(a2-3)Gal(b1-3)GlcNAc
# How it was run: as §1
# [17] = biological target: Neu5Ac9Ac(a2-3)Gal(b1-4)GlcNAc
# How it was run: as §1
# [18] = biological target: Neu5Ac9Ac(a2-6)Gal(b1-4)GlcNAc
# How it was run: as §1
# [19] = biological target: Neu5Gc(a2-3)Gal(b1-3)GlcNAc
# How it was run: as §1
# [20] = biological target: Neu5Gc(a2-3)Gal(b1-3)[Fuc(a1-4)]GlcNAc
# How it was run: as §1
# [21] = biological target: Neu5Gc(a2-3)Gal(b1-4)Glc
# How it was run: as §1
# [22] = biological target: Neu5Gc(a2-3)Gal(b1-4)GlcNAc
# How it was run: as §1
# [23] = biological target: Neu5Gc(a2-3)Gal(b1-4)GlcNAc(b1-3)Gal(b1-4)GlcNAc(b1-2)Man(a1-3)[Neu5Gc(a2-3)Gal(b1-4)GlcNAc(b1-3)Gal(b1-4)GlcNAc(b1-2)Man(a1-6)]Man(b1-4)GlcNAc(b1-4)GlcNAc
# How it was run: as §1
# [24] = biological target: Neu5Gc(a2-3)Gal(b1-4)[Fuc(a1-3)]GlcNAc
# How it was run: as §1
# [25] = biological target: Neu5Gc(a2-6)Gal(b1-4)GlcNAc
# How it was run: as §1
# [26] = biological target: Neu5Gc(a2-6)GalNAc
# How it was run: as §1
# [27] = biological target: Neu5Gc(a2-8)Neu5Ac(a2-3)Gal(b1-4)GlcNAc
# How it was run: as §1
# [28] = biological target: Neu5Gc(a2-8)Neu5Gc(a2-3)Gal(b1-4)GlcNAc
# How it was run: as §1
# [29] = biological target: Neu5Gc(a2-8)Neu5Gc(a2-3)Gal(b1-4)GlcNAc(b1-3)Gal(b1-4)GlcNAc
# How it was run: as §1
# [30] = biological target: Neu5Gc(a2-8)Neu5Gc(a2-6)Gal(b1-4)GlcNAc
# How it was run: as §1
# [31] = biological target: Neu5Gc(b2-6)Gal(b1-4)GlcNAc
# How it was run: as §1
binder,measurement,setting,value
PX14379A-bvu-539-28-539 (Bacteroides vulgatus) (protein) EPYSEIIEEDYVPTEADEIALLATTYSQLRFVMDWYGLFDLQEESGDVIVTPTRPNGWDDGGTYKQMHKHTWDNQQGQPQSIWDYCYKGIANANKILKRADEGFFTEESKPKVVAEVKGVRALWYSILCDTHGNIPIQTSFSEEVPVQSTRKQVFDFIINELKEVMPNLPTEVNKSTYGRLTQWGAKCLMARMYLNAGVYTGTPMWNECLEQCNDIINSGLFSLETNYTDIFKTENSGCVETIFAIPYDEVYNEGDNNGPVFGAHMKFLSSNSRKVFNMQTTPWGGSAANPQFINSYDPDDMRLKYTWLQGDQYSPDGVLITTFPNKLPSIYKTDTDDGYRVGKYEIKVGAKSLLSNDFPYFRYTEVLLMKAECLLRLGQNETEAAHIVSQIRERAFRESAHPEKATVDAAWLKGDTHINYGTLDEKGQIDDAGNTEVVELGGLYDEWGWEFAAEARRRTDMIRFGTYQKKSWFNHTPTANDLNGNSILFPIHLDHLNTNPNLQQNPGYAGK,glycan array binding signal (z-score),[1],-0.351
same,glycan array binding signal (z-score),[2],-0.095
same,glycan array binding signal (z-score),[3],-0.485
same,glycan array binding signal (z-score),[4],-0.24
same,glycan array binding signal (z-score),[5],-0.347
same,glycan array binding signal (z-score),[6],-0.107
same,glycan array binding signal (z-score),[7],-0.384
same,glycan array binding signal (z-score),[8],-0.382
same,glycan array binding signal (z-score),[9],-0.32
same,glycan array binding signal (z-score),[10],-0.208
same,glycan array binding signal (z-score),[11],-0.358
same,glycan array binding signal (z-score),[12],1.54
same,glycan array binding signal (z-score),[13],7.1
same,glycan array binding signal (z-score),[14],-0.246
same,glycan array binding signal (z-score),[15],-0.457
same,glycan array binding signal (z-score),[16],0.023
same,glycan array binding signal (z-score),[17],0.203
same,glycan array binding signal (z-score),[18],-0.431
same,glycan array binding signal (z-score),[19],-0.228
same,glycan array binding signal (z-score),[20],-0.268
same,glycan array binding signal (z-score),[21],-0.175
same,glycan array binding signal (z-score),[22],0.037
same,glycan array binding signal (z-score),[23],0.563
same,glycan array binding signal (z-score),[24],-0.059
same,glycan array binding signal (z-score),[25],-0.252
same,glycan array binding signal (z-score),[26],-0.242
same,glycan array binding signal (z-score),[27],-0.283
same,glycan array binding signal (z-score),[28],-0.194
same,glycan array binding signal (z-score),[29],-0.314
same,glycan array binding signal (z-score),[30],-0.098
same,glycan array binding signal (z-score),[31],-0.376
